Laboratory results from PubChem BioAssay AID2060359 (Molecular Pharmacology Branch, DTP, NCI, 2025).
Some entries of the source have several records that differ or are many. This is not the full list of results. The source may hold further records. Results that share an entry are repeated measurements (runs, samples, wells, individuals or studies). Dates in brackets are months of testing. Marks such as (2×) give the number of equal values in this list.

System: 276233-004-R-J1-PDC spheroids with HUVEC/MSC, viability
Experiment: Anticancer human tumor 276233-004-R-J1-PDC patient-derived colon adenocarcinoma cell line growth inhibition [TAK]
Settings: for IC50: compound alone; for viability, T/C: stronger effect = lower value
Excerpt: Combinatorial screen of targeted agents with TAK-243 and ipatasertib in multi-cell type tumor spheroids
A high-throughput screen of multi-cell type tumor spheroids was designed to identify active combinations of targeted small molecules and TAK-243 or ipatasertib. Complex spheroids include a stromal component modeled by human endothelial cells (HUVEC) and fibroblasts modeled by human mesenchymal stem cells (MSCs). The concentration ranges selected for each drug and investigational agent were based upon clinically achievable concentrations if the clinical Cmax of the agent was known.
Compounds. The drugs and investigational agents: TAK-243 (785004), ipatasertib (767898), everolimus (733504), selumetinib (741078), bortezomib (756655), trametinib (758246), ixazomib (758254), vemurafenib (761431), dabrafenib (764134), sapanisertib (764658), alpelisib (765974), and copanlisib (816437), were obtained from the National Cancer Institute (NCI) Developmental Therapeutics Program Chemical Repository. The FDA-approved anticancer drug set is available from the NCI Developmental Therapeutics Program. […] The stock solutions were prepared in dimethyl sulfoxide (DMSO, Sigma-Aldrich, St. Louis, MO, cat. D2650) at 800-fold the tested concentration and stored at -70 degrees C prior to their use. All drugs and investigational agents were tested over a range starting from a high concentration at or near the clinical Cmax and decreasing in half-log increments. If the clinical Cmax for an agent had not been determined, the highest concentration tested was 10 microM.
NCI60 Cell Culture. NCI60 cell lines were obtained from the NCI Developmental Therapeutics Program Tumor Repository. For each lot of cells, the Repository performed Applied Biosystems AmpFLSTR Identifiler testing with PCR amplification to confirm consistency with the published Identifier STR profile for each cell line. Cells were kept in continuous culture for no more than 20 passages. The optimal seeding densities for each of the cell lines at each time point assessed were determined prior to performing the concentration response studies. Briefly, the NCI60 human tumor lines were grown as monolayers in RPMI 1640 medium supplemented with 10% FBS and 2 mmol/L L-glutamine.
An additional 2 lines were from the NCI60 cell line panel including melanomas, MALME-3M and SK-MEL-2. Pooled donor human umbilical vein endothelial cells (HUVEC, Lonza, cat. CC-2519) and human mesenchymal stem cells (hMSC, Lonza, cat. PT-2501) were purchased from Lonza (Walkersville, MD).
PDMR cell lines were grown in complete medium (DC medium): Dulbecco's modified Eagle's medium (DMEM)/F12 supplemented with 5% fetal bovine serum (FBS), 2 mM L-glutamine, 100 U/mL penicillin and 100 µg/ml streptomycin, 0.4 µg/ml hydrocortisone, 10 ng/ml epidermal growth factor (EGF) recombinant human protein, 24 µg/mL adenine, and 0.1 mg/mL primocin. During culture from frozen stock vials, PDMR cells were cultured in the same medium containing 10 µM Y-27632 (see Table 3). The PDCs were cultured in complete DMEM/F12 media without 10 microM Y-27632 dihydrochloride for at least two passages prior to the screen. The pooled donor HUVEC and hMSC were cultured in endothelial cell growth medium 2 (PromoCell, Heidelberg, Germany, cat. C-22011) and mesenchymal stem cell growth medium 2 (PromoCell, cat. C-28009), respectively. […]
For the pre-screen, cell seeding densities were determined from a titration spanning the range from 5,000 to 313 cells per well. […]
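Note: spheroids exposed to drugs for seven days before the viability read.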

With `COc1c(OCCCN2CCOCC2)ccc2c3n(c(=NC(=O)c4cnc(N)nc4)nc12)CCN3` the IC50 was 87.8 nM [2020-02] and > 1 µM [2020-03].

`CC(C)NCC(C(=O)N1CCN(c2ncnc3c2C(C)CC3O)CC1)c1ccc(Cl)cc1` (stereo not given) was tested, and the viability, T/C (compound alone 0.3 µM) was 79.4, 108, 75, 95.5, 85.2, 88.6% [2020-02] and 88.7, 93.8, 104, 85% [2020-03], the viability, T/C (compound alone 9.49 µM) was 64.8 (2×), 82.6, 77.3, 66.1, 67.7% [2020-02] and 56.5, 70, 73.4, 61.5% [2020-03] and the viability, T/C (compound alone 30 µM) was 51.4, 44.2, 52.3, 52.2, 11.7, 35.5% [2020-02] and 49.8, 63, 58.8, 65.5% [2020-03]. The IC50 (run of 02/28/2020) was 25.7 µM, > 30 µM, 13.3 µM, 16.7 µM.
